Test results taken from publication PMC4336329 (PLoS ONE, 2015).
About 2,200 (0.71%) of roughly 310,000 compounds showed an effect of 50% or more. The effect is printed as a negative number. This is one part of the list.

biological target: human ether-à-go-go-related gene (hERG) potassium channel (human, UniProt Q12809); test: primary screen, population patch clamp on CHO cells stably expressing hERG
Sequence (Q12809 whole entry, looked up): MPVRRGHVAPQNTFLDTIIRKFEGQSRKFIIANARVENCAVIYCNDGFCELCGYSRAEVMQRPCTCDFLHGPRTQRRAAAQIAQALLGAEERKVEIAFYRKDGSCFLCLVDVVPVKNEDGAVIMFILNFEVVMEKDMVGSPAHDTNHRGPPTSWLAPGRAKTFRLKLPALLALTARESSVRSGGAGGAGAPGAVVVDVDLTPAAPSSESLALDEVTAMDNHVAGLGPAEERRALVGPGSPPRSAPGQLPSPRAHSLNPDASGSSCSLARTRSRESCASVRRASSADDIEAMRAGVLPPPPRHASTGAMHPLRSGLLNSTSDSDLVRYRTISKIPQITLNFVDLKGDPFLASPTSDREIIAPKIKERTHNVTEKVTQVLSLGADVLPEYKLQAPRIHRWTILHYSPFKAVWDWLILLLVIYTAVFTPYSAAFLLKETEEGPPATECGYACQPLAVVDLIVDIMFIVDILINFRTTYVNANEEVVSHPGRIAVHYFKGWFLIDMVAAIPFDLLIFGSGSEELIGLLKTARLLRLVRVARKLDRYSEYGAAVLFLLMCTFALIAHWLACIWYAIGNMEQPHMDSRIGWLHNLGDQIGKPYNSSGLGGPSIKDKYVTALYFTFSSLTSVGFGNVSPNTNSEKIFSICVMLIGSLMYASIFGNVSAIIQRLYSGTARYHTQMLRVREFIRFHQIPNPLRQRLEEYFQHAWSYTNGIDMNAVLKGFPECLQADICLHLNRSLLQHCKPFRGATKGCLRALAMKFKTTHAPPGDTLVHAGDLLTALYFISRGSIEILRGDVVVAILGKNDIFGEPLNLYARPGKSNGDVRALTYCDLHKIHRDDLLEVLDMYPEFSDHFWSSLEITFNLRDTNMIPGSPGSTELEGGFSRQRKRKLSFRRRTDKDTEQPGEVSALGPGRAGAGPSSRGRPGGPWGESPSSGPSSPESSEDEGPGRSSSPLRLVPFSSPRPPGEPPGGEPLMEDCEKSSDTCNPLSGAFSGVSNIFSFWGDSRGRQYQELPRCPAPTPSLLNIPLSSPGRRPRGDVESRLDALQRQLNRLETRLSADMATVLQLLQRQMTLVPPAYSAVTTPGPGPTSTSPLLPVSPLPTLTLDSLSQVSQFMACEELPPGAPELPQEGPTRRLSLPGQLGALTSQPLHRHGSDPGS

Structure (SMILES) | hERG current change (%, negative = inhibition) at 1uM [%]
CCCCC(=O)Nc1c2c(nn1-c1ccc(C)cc1)CS(=O)(=O)C2 | 4.42
CCOc1ccc(CCNC(=O)c2ccc(S(=O)(=O)N3CCCC3)cc2)cc1OCC | 12.6
O=C(Nc1ccccc1O)c1ccc(NC(=O)C2CC2)cc1 | 14.2
Cc1c(NC(=O)C2CCN(S(=O)(=O)c3ccccc3)CC2)c(=O)n(-c2ccccc2)n1C | 11.6
CCOc1ccccc1NC(=S)N1CCN(c2nc(-c3ccc(F)cc3)cs2)CC1 | 12.4
CCC(C(=O)NCc1ccc(C)cc1)c1ccccc1 (stereo not shown) | 7.79
CCN(CC)CCCN=Cc1c(O)n(Cc2ccccc2)c(=O)c2ccccc12 | -77.3
COc1cc(C=O)ccc1OS(=O)(=O)c1ccccc1[N+](=O)[O-] | 13.6
CCN1CCN(C(=O)c2ccccc2NS(=O)(=O)c2ccc(Cl)cc2)CC1.Cl | 8.95
CC1CCN(CCOCCOc2ccc(Br)cc2Cl)CC1.O=C(O)C(=O)O | -52
Cn1cccc1Cc1nnc(SCC(=O)Nc2nccs2)n1CCc1ccccc1 | 2.92
CN(C)Cc1c(C(=O)N/N=C/c2cccc(OCc3c(F)cccc3Cl)c2)nnn1-c1nonc1N | 11.4
COCCOC(=O)C1=C(N)OC2=C(C(=O)CC(C)(C)C2)C1c1cccnc1 (stereo not shown) | 5.36
CCNCC(=O)N1c2ccccc2CCc2ccc(NC(=O)OC(C)C)cc21.Cl | 6.96
COc1ccc(-c2sc3cc(OC)c(OC)cc3c2C#CC2(O)CCCCC2)cc1 | 22.1
COc1ccc(N2CCN(C(=O)c3ccc4ccccc4n3)CC2)cc1 | -8.46
COc1ccccc1CCCNC(=O)C1CCC(=O)N(CCCN2CCCC2=O)C1 (stereo not shown) | 20.7
Cc1ccc(-n2nnnc2SCC(=O)N2CCNC2=O)cc1C | -5.05
O=C(CCNC(=O)N1CC(=O)Nc2ccccc21)Nc1ccc(Cl)cc1 | 14.3
COc1ccc(N2CC(C(=O)OCC(=O)Nc3cccc(C)c3C)CC2=O)cc1 (stereo not shown) | 11.7
O=C(CSc1nc(-c2ccccc2)cs1)N1CCN(C(=O)c2ccco2)CC1 | -12.9
CCC(=O)Nc1cccc(-c2cn3cccc(C)c3n2)c1 | 3.61
COc1cccc(CC(=O)Nc2cc(S(=O)(=O)N3CCCCC3)ccc2C)c1 | 9.63
COc1ccc(CCNc2cn[nH]c(=O)c2Cl)cc1OC | 14.4
Cn1nc(C(=O)NC2CCCCC2)c2c1-c1ccccc1SC2 | 7.79
COc1ccc(N2CCN(CC(=O)c3c[nH]c4ccccc34)CC2)cc1 | 9.51
CCC(C(=O)Nc1nnc(-c2ccco2)s1)c1ccccc1 (stereo not shown) | 11.4
NC(=O)C1(N2CCCCC2)CCN(C(=O)c2ccc(C#Cc3ccccc3)o2)CC1 | -3.33

Structure (SMILES) | hERG current change (%, negative = inhibition) at 1uM [%]
CCCCOc1ccc(C(=O)Oc2cccnc2)cc1 | 14
O=C(COC(=O)CNC(=O)c1ccccc1F)Nc1cccnc1Cl | 8.22
O=C(Nc1cccc(C(=O)O)c1)/C(=C\c1ccccc1)NC(=O)c1cccc2ccccc12 | 13.5
COc1ccc(-n2ncc3c(=O)n(CC(C)=O)cnc32)cc1 | 15.6
COc1ccc(C(=O)NCCNc2nc3c(C)cccc3cc2C#N)cc1 | 8.93
CCc1nc(C)c(C(=O)N2CCCC(C(=O)Nc3cccc(-c4cccc(C)c4)c3)C2)o1 (stereo not shown) | 10.3
Cc1ccc(NC(=O)Cn2cc(S(=O)(=O)c3ccc(F)cc3)c(=O)c3cc(F)ccc32)cc1 | 8.72
Clc1ccc(Cn2ncc3c(N4CCOCC4)ncnc32)cc1 | 0.839
Cc1c(C(C)CCCO)oc(=O)c2c1Oc1c(C)c(C(C)C[C@H](C)O)oc(=O)c1C2 (stereo partly shown) | 13.7
O=C(c1ccc(CS(=O)(=O)c2ccc(Br)cc2)o1)N1CCC2(CC1)OCCO2 | 7.58
CN1CCCC1C(O)(c1ccccc1)c1ccccc1.Cl (stereo not shown) | 6.46
O=C(Nc1cccc2ccccc12)C1CCN(C(=O)Cc2ccccc2)CC1 | -9.15
COc1ccc(C(C(=O)NCc2ccccc2)N(Cc2ccco2)C(=O)c2snc(C(N)=O)c2N)cc1 (stereo not shown) | -5.54
CCOC(=O)Nc1n[nH]c(NC(=O)OCC)c1[N+](=O)[O-] | 10.3
COC(=O)c1cc(S(=O)(=O)N2CCN(c3ccc(C(C)=O)cc3)CC2)cn1C | 12.5
CC(NC(=O)c1ccco1)C(=O)N1CCN(C(c2ccccc2)c2ccccc2)CC1 (stereo not shown) | 10.9
CCCCN1CC(O)=C(c2nc(-c3ccc(Cl)cc3)cs2)C1=N | 7.62
COc1ccc(S(=O)(=O)N2CCOC23CCN(S(=O)(=O)c2cc(C)ccc2OC)CC3)cc1 | 22.6
C=CCNC(=S)NNc1nc2sc3c(c2c(=O)[nH]1)CC(C)(C)OC3 | 17.6
CCN1CCN(S(=O)(=O)c2ccc(Cl)c(C(=O)Nc3ccccc3N3CCCC3)c2)CC1 | 7.91
O=C(COc1ccccc1Cl)Nc1nc(-c2cccs2)cs1 | -0.0902
CCN(CC)CCNC(=S)Nc1ccc(Cl)cc1 | 5.24
Cc1ccc(-c2nnc(Cc3ccc([N+](=O)[O-])cc3)o2)cc1 | -37.6
CC(C)OC(=O)CC1C(=O)NCCN1C(=S)NC(=O)c1cccs1 (stereo not shown) | 15
CCCOc1ccc(Cc2c(O)nc(SC)[nH]c2=O)cc1 | 14
O=C(NCC1CCCO1)c1cccc(S(=O)(=O)Nc2ccc(F)cc2)c1 (stereo not shown) | 7.95
O=C(NCC1CCCN(Cc2ccccc2F)C1)c1cccc(C(F)(F)F)c1 (stereo not shown) | -9.44
